Data reported in PubChem BioAssay (NCI).
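Protocol summary: plate cells (96-well), add compound at 5 concentrations, incubate 48 h, interpolate endpoints linearly. At the GI50, growth is halved. TGI: concentration producing complete growth inhibition.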

System: NCI-H322M lung
Test: NCI tumour cell line growth inhibition, 48 h

COC[C@@H](CC(C)C)N=C1NC(=O)/C(=C/c2ccc3ncoc3c2)N1
GI50: 2700 nM
TGI: > 100000 nM
